According to the supplement of paper PMC4604168 (melanoma cell lines):
The other results are listed elsewhere or left out. Repeats are few or missing, and single values can be far off.

tested on: A2058; experiment: cell count relative to DMSO control; melanoma cells; higher = more viable cells; conditions: library dose: low library concentration; 72 h
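Note: cell number obtained by counting DAPI-stained nuclei in high-throughput microscope images with image analysis software, screen run in 1,536-well plates.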

SMILES	cell count
O=C(Nc1cc(C(F)(F)F)cc(C(F)(F)F)c1)c1cc(Cl)ccc1O + CN1CCN(c2ccc3nc(-c4c(N)c5c(F)cccc5[nH]c4=O)[nH]c3c2)CC1 [Dovitinib] (first compound 0.016 µM, partner dose 0.1 µM)	90.7%
Cc1cc(N2CCOCC2)cc2[nH]c(-c3c(NC[C@@H](O)c4cccc(Cl)c4)cc[nH]c3=O)nc12 + OCCn1cc(-c2cnc3nnn(Cc4ccc5ncccc5c4)c3n2)cn1 [PF04217903] (first compound 0.2 µM, partner dose 1 µM)	90%
O=C(O)[C@@H]1[O][Sb](=[O])([O][Sb]2(=[O])[O][C@H]([C@H](O)CO)[C@H](O)[C@H](C(=O)O)[O]2)[O][C@H]([C@H](O)CO)[C@@H]1O (some centres not stated) [stibogluconate] + COc1ccc(Cl)c(Nc2nc3ccccc3nc2NS(=O)(=O)c2cccc(NC(=O)C(C)(C)N)c2)c1 [XL147] (first compound 2 µM, partner dose 0.8 µM)	98%
O=C(O)c1ccc2c(c1)nc(Nc1cccc(Cl)c1)c1ccncc12 + Nc1ccn([C@@H]2O[C@H](CO)[C@@H](O)C2(F)F)c(=O)n1 [gemcitabine] (first compound 0.4 µM, partner dose 0.0004 µM)	91.7%
O=C(Nc1cc(C(F)(F)F)cc(C(F)(F)F)c1)c1cc(Cl)ccc1O + Cc1nc(Nc2ncc(C(=O)Nc3c(C)cccc3Cl)s2)cc(N2CCN(CCO)CC2)n1 [dasatanib] (first compound 0.016 µM, partner dose 0.004 µM)	78.7%
O=C(O)c1ccc2c(c1)nc(Nc1cccc(Cl)c1)c1ccncc12 + CCCS(=O)(=O)Nc1ccc(F)c(C(=O)c2c[nH]c3ncc(Cl)cc23)c1F [PLX4720] (first compound 0.4 µM, partner dose 0.08 µM)	104%
O=C(Nc1cc(C(F)(F)F)cc(C(F)(F)F)c1)c1cc(Cl)ccc1O + Nc1nc(F)nc2c1ncn2[C@@H]1O[C@H](CO)[C@@H](O)[C@@H]1O [fludarabine] (first compound 0.016 µM, partner dose 0.2 µM)	102%
O=C(O)c1ccc2c(c1)nc(Nc1cccc(Cl)c1)c1ccncc12 + O=C(Nc1cccc(Cl)c1)Nc1ncc(CCNc2ncnc3ccsc23)s1 [SNS314] (first compound 0.4 µM, partner dose 0.0008 µM)	89.5%
O=C(O)c1ccc2c(c1)nc(Nc1cccc(Cl)c1)c1ccncc12 + C=C(c1ccc(C(=O)O)cc1)c1cc2c(cc1C)C(C)(C)CCC2(C)C [Bexarotene] (first compound 0.4 µM, partner dose 2 µM)	94.5%
O=C(O)[C@@H]1[O][Sb](=[O])([O][Sb]2(=[O])[O][C@H]([C@H](O)CO)[C@H](O)[C@H](C(=O)O)[O]2)[O][C@H]([C@H](O)CO)[C@@H]1O (some centres not stated) [stibogluconate] + CS(=O)(=O)CCNCc1ccc(-c2ccc3ncnc(Nc4ccc(OCc5cccc(F)c5)c(Cl)c4)c3c2)o1 [lapatinib] (first compound 2 µM, partner dose 0.8 µM)	103%
O=C(O)c1ccc2c(c1)nc(Nc1cccc(Cl)c1)c1ccncc12 + NCC(=O)Nc1ccc(-n2nc(C(F)(F)F)cc2-c2ccc3c(ccc4ccccc43)c2)cc1 [OSU03012] (first compound 0.4 µM, partner dose 1 µM)	98.5%
O=C(Nc1cc(C(F)(F)F)cc(C(F)(F)F)c1)c1cc(Cl)ccc1O + CNC(=O)c1cc(Oc2ccc(NC(=O)Nc3ccc(Cl)c(C(F)(F)F)c3)cc2)ccn1 [sorafenib] (first compound 0.016 µM, partner dose 0.4 µM)	96.9%
